Assay results reported in the supplement of paper PMC11417369.
Some of the results follow.

test system: PfSIP2 AP2 domain 1 (GST-tagged); test: gcPBM binding intensity (ln(normalized median fluorescence intensity)); higher = stronger DNA binding
Summary of the method: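 Each value is the highest Masliner-normalised natural-log median intensity across replicate spots of either orientation of a probe. The probes were primer-extended double-stranded 36-bp intergenic genomic sequences on an Agilent 4 × 180k array, alongside negative controls, exposed for 1 h to GST-tagged P. falciparum DNA-binding domains expressed in E. coli. Bound protein was picked up with Alexa488 anti-GST antibody and scanned at 488 nm.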

Sequence	gcPBM binding intensity (ln)
TGGGTAATACATAATACACACATGTATATGTCGCAT [CACACA_site1125]	6.8
AGTATATATACACAAGGGGAATACATATACAAAATT [TGCATGCA_negctrl_site244]	6.89
TTTTTAAAAAAGATAAGCGAAAGAATTAATTTTTAA [GTGCAC_negctrl_site197]	6.7
TATGTATAAATATATGCACACATATATATATTTATA [CACACA_site9150]	7.18
ATATATATAATAAACACACACATATACATATATGTA [CACACA_site3462]	7.6
AAGTTGTATATTGATTGTACTTGTTTAGGGTTATAG [XGTACX_site2953]	7.17
TATATATATATAATGTGTACACAAATATATATTATA [XGTACX_site8786]	9.24
AGGTAAAATATACATTGTACATATAATTAATTTATT [XGTACX_site626]	6.95
AATATAAATTAATTTACACACTAAAAAATATTTATA [CACACA_site7728]	7.09
ACATACTTTAATATATGTACATAAGAAAAAAAAAAA [XGTACX_site2991]	7.11
TATAAGAATGACAAGTGTACATATCAAATATATTAG [XGTACX_site7113]	6.93
TATTTTTTATATTTATTTATTTAAAGGAGCTTTTCT [GTGCAC_negctrl_site293]	6.67
TATACTAAAAAATACACATGCACATACAATATATAT [TGCATGCA_site1016]	7.84
AAAATAATATATAATTGTACTTTTTTTTTATATATA [XGTACX_site6093]	6.84
ATTATTACACAACGTTGTACATTTCAATATTTTTAT [XGTACX_site5096]	7.16
TTTTTTCTTAAAATTTGTACATAGTGCAATTTTTTT [XGTACX_site5509]	8.62
TTTCTTTTTTTTTAATGTACTTTTTTTATAAAAGGT [XGTACX_site5688]	7.27
TCCTCTTCAATATATATATATTATAAATAAATAAAT [CACACA_negctrl_site1756]	7.34
TGTACATATATATATATAATAATAGTTATGTTTATT [CACACA_negctrl_site1474]	7.14
TTTTTTTATAGCTAAACACACATAAGAATATATGTT [CACACA_site1099]	6.91
CTATAATATAGGTATACACACATATTATAGAATATT [CACACA_site7696]	6.83
ATATAAAATAGACACGCACACAAAAAAAAAAAAAAA [CACACA_site3522]	7.13
TATGTCAAAAAATAATGTACAAAAAAATTAACATAA [XGTACX_site5463]	6.88

Sequence	gcPBM binding intensity (ln)
TATATATGGAAAAGGTGTACATTCAATATATATATA [XGTACX_site3167]	8.82
TTTATTTTGTAGTGTACACATATATATATATATATA [CACACA_site5843]	9.09
TATATTTTTTTTCTAGTGCATATTATTAATTAAGTT	8.81
TGAGTATTTTTTTAATGTACTTATATTAAAAGGAAA [XGTACX_site6286]	6.92
TACAAAATAAGACATGCATGTTATACATATATATTT [TGCATGCA_site321]	6.89
AAAATATTATTTTGTTGTACATATAAAATTTTAAGC [XGTACX_site1866]	7.26
AAACAAAAAAGAAACACACACTAATTAAATTTTCTT [CACACA_site4746]	6.74
TAAATTAATAAAAAGTGTACATAATATACATATATA [XGTACX_site8604]	7.02
TACAATACCGTACAGGTGCAACTAGCCAAAAAAAAG	10.2
ATAATTAAAAAAGGAATATATATATATATATATATA [GTGCAC_negctrl_site343]	9.3
CGTATGACATAATATTGTACTTTTGATATACATCAT [XGTACX_site7366]	6.97
TTTAATAATATTTAGGTGCTATATATTATATGTATA	7.34
ATAAATCATAAGGAGAGTACATAAATAAAATAATCA [XGTACX_site8825]	6.91
AAGTGGCATATAAGTAAAAAATATATACAAGTATAT [GTGCAC_negctrl_site427]	6.99
TATTAAAGATACTCGGTATAAATAAATTTTAATGTG [XGTACX_negctrl_site239]	6.92
CTCAATATATTTGATTTACACACTTACAATGTATAT [CACACA_site8982]	7.15
ACAACATGCACACGCACACACAAAAAAAGCATGCAT [CACACA_site6185]	7.74
ATGCTTATTATTTATTGTACTGAATAAATATATCTG [XGTACX_site4483]	6.92
TATAAAAAATATAATTGTACATAAAGGTTAAAATGT [XGTACX_site6138]	7.2
TTATTTCTACCTTTTTGTACACATTATTATGAAACC [XGTACX_site5325]	7.58
TTTAAATATTACATATGTACTTATAAATATATATAT [XGTACX_site1284]	8.21
AAGGAATAGGCATATACACACAGGTACAGATATATA [CACACA_site4402]	6.92
AAAAAAAAAAAAAACACACAAATCATAAATAAATAT [CACACA_site6362]	7.32

Sequence	gcPBM binding intensity (ln)
AAAAAAAAAATTGAAAGTACAAATATGTATTATATA [XGTACX_site2455]	6.71
TAATAGTATATAAAAAGTACATAATAAGATATGAAA [XGTACX_site1000]	7.12
ATTATGTGCCAATACACACACACATATATATATATA [CACACA_site468]	9.36
TAAAATATGTCATGTGGTACATGAATAGCTTTTATT [XGTACX_site3809]	6.8
TTTTTGTTATATAAAGTGCAGTGACAAGCAGTTTAA	7.77
AGTGGTGTTAAATGTTGTACGATTTTGTGTTATTCG [XGTACX_site178]	7.04
ATTTAAGCATTATTTTGTACGAAAATAAAAAAATGA [XGTACX_site6958]	7.23
ATATAAAAAAATAAAACACACACATATATATTATAT [CACACA_site8909]	7.17
TATAATGCTCTTCTTTGTACATATTATGATTATATT [XGTACX_site2332]	7.15
AAAGGAAAATGTGTAAAAAGAAATGCTAGGTATATA [GTGCAC_negctrl_site699]	6.81
ATATATATATAATATAGTACGTATAATATATGAATC [XGTACX_site4385]	8.32
AGTCTGAATAAAATTACACACATATACAGATATATA [CACACA_site5054]	6.91
ATATCATTTTCTAGCACACACATTGTTATTACCTTG [CACACA_site902]	7.3
TTTCTAAAAATAAGAACACACACATATAAGCATATA [CACACA_site8714]	7.01
TTTTTTTAAATATACACACACATTTATACAGATATA [CACACA_site5811]	7.12
TATTAGAACATATATGCATGCAATAGATATTCCAAT [TGCATGCA_site297]	6.81
TATGTATAATTTCATTGTACTTTTGATATTATCATA [XGTACX_site280]	6.96
TATGTAACAAAAAAAAGTACACATATATATAGTGTA [XGTACX_site7772]	6.99
AAGATAATCACAAAATGTACAGGAAATATGACAACC [XGTACX_site3607]	7.33
ACTGCGTTTTTACACGCGCACTGCAATGAACAATAT	8.05
AATGGTATAAACAATACACACATAATATATATATTG [CACACA_site4997]	6.77
AAGAAAAAGGAACGGAAAAACAAACAAGGGGCCCAA [TGCATGCA_negctrl_site4]	6.66
TTTTCTAAATTAATAATACACACTTGCTAAAATCAT [CACACA_site3207]	6.91

Sequence	gcPBM binding intensity (ln)
TATATGTTTTATAGTACACACATAAATGGACATACT [CACACA_site2191]	7.06
TGAATTTAGATATATACACACAAAAGTATATACAAT [CACACA_site2804]	6.83
CCCACTAAAAAACACACACACACACCCATATATATA [CACACA_site6140]	7.53
ATATGTATTAAGTGTACACATATAATCTATCTTGTT [CACACA_site5329]	7.29
TTTTTTTTATATAGTAGTACTAATTAGAATTTTTAT [XGTACX_site7476]	6.78
TACATACATACATACACACATACATATGTATATATA [CACACA_site2480]	7.84
TAATGCCATAATACGTGTACTTAATATATTAGAACA [XGTACX_site5809]	7.23
CTCAAATGTTATTGTAGTACCTAAAAAATATATTCT [XGTACX_site1970]	6.97
GTTGGTAGGCGGTACGGTACACGTAAAGTTTTTCTT [XGTACX_site7706]	6.64
ATAAATGACAAATTAACACACATATATTATATATAT [CACACA_site3899]	7.63
ACCATATAAATAAACACACACACACGGATATAAATA [CACACA_site7157]	7.21
AACTCATAAAATAATGGTACACAAAAAAAATAAATA [XGTACX_site7648]	6.99
CAAGGAACCAGACACACACACATAAATGTATTTATA [CACACA_site6491]	6.97
TTTTTTTTTTTCTTTTGTACGTATAAAATTATATAA [XGTACX_site2453]	7.01
TTAGGCAAGGCGGGGGGTACGTTTTTATATAATTAT [XGTACX_site8029]	9.53
TTAGATTTATAAGTGTGTACGTAAAATACTTAATAA [XGTACX_site8246]	7.03
TGTGTGTGCTTATTTTGTACATATTAGGTAAATATT [XGTACX_site6329]	7.21
TTTATGGAATAATCACGTACACACAAGAAAAAAAAA [XGTACX_site985]	7.06
TTTTTATCTAATCTAATATTATATTATACATATAAT [XGTACX_negctrl_site275]	6.92
ACTAAACGAATAAATTGTACAAAGAAATATATTCAT [XGTACX_site6766]	7.06
